Drawing on the supplement of paper PMC9588766, this text covers cell viability for 25 molecules.

SMILES strings stand for the structures. Counter-ions that a name gives are not always drawn. Over roughly 1,900 compounds, “cell viability of compound + 1 nM pemigatinib relative to pemigatinib-only (DMSO) wells” has its median near 0.95; the lowest 2% begin near 0.22. This is one part of the list.

The assay deals with PDC-DUC18828. Description: cell viability of compound + 1 nM pemigatinib relative to pemigatinib-only (DMSO) wells (fraction); PDC-DUC18828 is a patient-derived cholangiocarcinoma cell line; higher = less growth inhibition. As to conditions: first compound 1 µM; pemigatinib concentration 1 nM; 72 h. The protocol: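 Selleck Bioactive library screen in the patient-derived FGFR2 fusion-positive ICC cell line PDC-DUC18828 (500 cells/well). Each compound was tested at 1 uM with 1 nM pemigatinib, in triplicate, for 72 h. Viability was read by CellTiter-Glo and normalised to plate DMSO controls. Value is the paper's averaged normalised viability.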
Take `CC1(C)[C@@H](O)CC[C@]2(C)[C@H]3C(=O)C=C4[C@@H]5C[C@@](C)(C(=O)O)CC[C@]5(C)CC[C@@]4(C)[C@]3(C)CC[C@@H]12` [Enoxolone] + CCN1C(=O)N(c2c(F)c(OC)cc(OC)c2F)Cc2cnc3[nH]c(CN4CCOCC4)cc3c21 [pemigatinib]: the cell viability turned out to be 0.937.
The value for `COCCOC(=O)C1=C(C)NC(C)=C(C(=O)OC(C)C)C1c1cccc([N+](=O)[O-])c1` (stereo not given) [Nimodipine] + CCN1C(=O)N(c2c(F)c(OC)cc(OC)c2F)Cc2cnc3[nH]c(CN4CCOCC4)cc3c21 [pemigatinib] was 0.984; that for `NCCS` [Cysteamine HCl] + CCN1C(=O)N(c2c(F)c(OC)cc(OC)c2F)Cc2cnc3[nH]c(CN4CCOCC4)cc3c21 [pemigatinib] was 1.02; that for `CN1C(C(=O)Nc2ccccn2)=C(O)c2ccccc2S1(=O)=O` [Piroxicam] + CCN1C(=O)N(c2c(F)c(OC)cc(OC)c2F)Cc2cnc3[nH]c(CN4CCOCC4)cc3c21 [pemigatinib] was 1.08.
The result for `COc1c(C)c2c(c(O)c1C/C=C(\C)CCC(=O)OCCN1CCOCC1)C(=O)OC2` [Mycophenolate Mofetil] + CCN1C(=O)N(c2c(F)c(OC)cc(OC)c2F)Cc2cnc3[nH]c(CN4CCOCC4)cc3c21 [pemigatinib] reads 0.546; that for `O=C(NCc1cccc(O)c1)Nc1nc(-c2ccncc2)cs1` + CCN1C(=O)N(c2c(F)c(OC)cc(OC)c2F)Cc2cnc3[nH]c(CN4CCOCC4)cc3c21 [pemigatinib], 0.912.
The value for `COC(=O)CCc1ccc(OCC(O)CNC(C)C)cc1` (stereo not given) [Esmolol HCl] + CCN1C(=O)N(c2c(F)c(OC)cc(OC)c2F)Cc2cnc3[nH]c(CN4CCOCC4)cc3c21 [pemigatinib] was 0.933; that for `O=C(O)c1ccc(-n2nc(-c3ccccc3O)nc2-c2ccccc2O)cc1` [Deferasirox] + CCN1C(=O)N(c2c(F)c(OC)cc(OC)c2F)Cc2cnc3[nH]c(CN4CCOCC4)cc3c21 [pemigatinib] was 0.931.
On to `Cc1ccc(Sc2ccccc2N2CCNCC2)c(C)c1` + CCN1C(=O)N(c2c(F)c(OC)cc(OC)c2F)Cc2cnc3[nH]c(CN4CCOCC4)cc3c21 [pemigatinib], for which the cell viability amounted to 0.905.
The value for `C[C@H](NC(=O)CCc1nc2ccccc2c(=O)[nH]1)c1ccccc1` + CCN1C(=O)N(c2c(F)c(OC)cc(OC)c2F)Cc2cnc3[nH]c(CN4CCOCC4)cc3c21 [pemigatinib] was 0.971; that for `NCC(=O)CCC(=O)O` [5-Aminolevulinic acid HCl] + CCN1C(=O)N(c2c(F)c(OC)cc(OC)c2F)Cc2cnc3[nH]c(CN4CCOCC4)cc3c21 [pemigatinib] was 0.909.
As to `CN1CCC(CNc2ccc3ncc(-c4cccc(OC(F)(F)F)c4)n3n2)CC1` [SGI-1776 free base] + CCN1C(=O)N(c2c(F)c(OC)cc(OC)c2F)Cc2cnc3[nH]c(CN4CCOCC4)cc3c21 [pemigatinib], the cell viability is 0.886.
The result for `O=C(CCCN1CCC(O)(c2ccc(Cl)cc2)CC1)c1ccc(F)cc1` [Haloperidol] + CCN1C(=O)N(c2c(F)c(OC)cc(OC)c2F)Cc2cnc3[nH]c(CN4CCOCC4)cc3c21 [pemigatinib] reads 0.994.
The value for `COc1cc2c(cc1OC)[C@@H]1Cc3ccc(OC)c(OC)c3CN1CC2` [Rotundine] + CCN1C(=O)N(c2c(F)c(OC)cc(OC)c2F)Cc2cnc3[nH]c(CN4CCOCC4)cc3c21 [pemigatinib] was 0.866; that for `Cc1ccc(C)c(OCCCC(C)(C)C(=O)O)c1` [Gemfibrozil] + CCN1C(=O)N(c2c(F)c(OC)cc(OC)c2F)Cc2cnc3[nH]c(CN4CCOCC4)cc3c21 [pemigatinib] was 1.04.
For the molecule `COc1ccc([C@@H]2Sc3ccccc3N(CCN(C)C)C(=O)[C@@H]2OC(C)=O)cc1` [Diltiazem HCl] + CCN1C(=O)N(c2c(F)c(OC)cc(OC)c2F)Cc2cnc3[nH]c(CN4CCOCC4)cc3c21 [pemigatinib], the cell viability was determined as 0.936.
The value for `Cc1cn([C@H]2C[C@H](N=[N+]=[N-])[C@@H](CO)O2)c(=O)[nH]c1=O` [Zidovudine] + CCN1C(=O)N(c2c(F)c(OC)cc(OC)c2F)Cc2cnc3[nH]c(CN4CCOCC4)cc3c21 [pemigatinib] was 0.971.
The result for `CC(=O)c1cc([N+](=O)[O-])c(Sc2ccc(F)cc2F)s1` + CCN1C(=O)N(c2c(F)c(OC)cc(OC)c2F)Cc2cnc3[nH]c(CN4CCOCC4)cc3c21 [pemigatinib] reads 0.952; that for `NS(=O)(=O)Cc1noc2ccccc12` [Zonisamide] + CCN1C(=O)N(c2c(F)c(OC)cc(OC)c2F)Cc2cnc3[nH]c(CN4CCOCC4)cc3c21 [pemigatinib], 1.02; that for `C=CCc1ccc(O)c(-c2cc(CC=C)ccc2O)c1` [Magnolol] + CCN1C(=O)N(c2c(F)c(OC)cc(OC)c2F)Cc2cnc3[nH]c(CN4CCOCC4)cc3c21 [pemigatinib], 0.903.
The result for `COc1ccc2c(c1)C(=O)N(CCc1ccc(S(=O)(=O)NC(=O)NC3CCCCC3)cc1)C(=O)C2(C)C` [Gliquidone] + CCN1C(=O)N(c2c(F)c(OC)cc(OC)c2F)Cc2cnc3[nH]c(CN4CCOCC4)cc3c21 [pemigatinib] reads 0.869.
Consider `COc1ccc(C[C@H](NC(=O)[C@H](C)NC(=O)CN2CCOCC2)C(=O)N[C@@H](Cc2ccccc2)C(=O)[C@@]2(C)CO2)cc1` + CCN1C(=O)N(c2c(F)c(OC)cc(OC)c2F)Cc2cnc3[nH]c(CN4CCOCC4)cc3c21 [pemigatinib], for which the cell viability was 0.0172.
In the case of `CC(C[N+](C)(C)C)OC(N)=O` (stereo not given) [Bethanechol chloride] + CCN1C(=O)N(c2c(F)c(OC)cc(OC)c2F)Cc2cnc3[nH]c(CN4CCOCC4)cc3c21 [pemigatinib], the cell viability was determined as 0.964.
The result for `Cc1c(NC(=O)OC[C@@H]2COCCN2)cn2ncnc(Nc3ccc4c(cnn4Cc4cccc(F)c4)c3)c12` + CCN1C(=O)N(c2c(F)c(OC)cc(OC)c2F)Cc2cnc3[nH]c(CN4CCOCC4)cc3c21 [pemigatinib] reads 0.903; that for `Cc1ccc2nc(NCCN)c3ncc(C)n3c2c1` + CCN1C(=O)N(c2c(F)c(OC)cc(OC)c2F)Cc2cnc3[nH]c(CN4CCOCC4)cc3c21 [pemigatinib], 1.03.
